# Some of the results follow.
# How the values were obtained:
# Assay in all cases: glycan array binding signal (z-score within array); higher = stronger binding
# Conditions in all cases: glycan notation: IUPAC condensed, linker removed
# [1] = target: Gal(b1-3)GlcNAc(b1-3)Gal(b1-3)GlcNAc
# Method in brief: (§1)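 Negative Z-scores can be read as non-binding. The Z-score is calculated within each array and then averaged across arrays of one protein sequence at different concentrations or buffers and across linkers. Arrays, 3228 in all, were curated from the Consortium for Functional Glycomics database and kept only where the protein sequence was available.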
# [2] = target: Gal(b1-3)GlcNAc(b1-3)Gal(b1-4)Glc
# Method in brief: as §1
# [3] = target: Gal(b1-3)GlcNAc(b1-3)Gal(b1-4)GlcNAc
# Method in brief: as §1
# [4] = target: Gal(b1-3)GlcNAc(b1-3)Gal(b1-4)GlcNAc(b1-2)Man(a1-3)[Gal(b1-3)GlcNAc(b1-3)Gal(b1-4)GlcNAc(b1-2)Man(a1-6)]Man(b1-4)GlcNAc(b1-4)GlcNAc
# Method in brief: as §1
# [5] = target: Gal(b1-3)GlcNAc(b1-3)Gal(b1-4)GlcNAc(b1-2)[Gal(b1-3)GlcNAc(b1-3)Gal(b1-4)GlcNAc(b1-6)]Man(a1-6)[Gal(b1-3)GlcNAc(b1-3)Gal(b1-4)GlcNAc(b1-2)Man(a1-3)]Man(b1-4)GlcNAc(b1-4)[Fuc(a1-6)]GlcNAc
# Method in brief: as §1
# [6] = target: Gal(b1-3)GlcNAc(b1-3)Gal(b1-4)GlcNAc(b1-3)Gal(b1-4)GlcNAc(b1-2)[Gal(b1-3)GlcNAc(b1-3)Gal(b1-4)GlcNAc(b1-3)Gal(b1-4)GlcNAc(b1-6)]Man(a1-6)[Gal(b1-3)GlcNAc(b1-3)Gal(b1-4)GlcNAc(b1-3)Gal(b1-4)GlcNAc(b1-2)Man(a1-3)]Man(b1-4)GlcNAc(b1-4)[Fuc(a1-6)]GlcNAc
# Method in brief: as §1
# [7] = target: Gal(b1-3)GlcNAc(b1-3)Gal(b1-4)GlcNAc(b1-6)[Gal(b1-3)GlcNAc(b1-3)]Gal(b1-4)Glc
# Method in brief: as §1
# [8] = target: Gal(b1-3)GlcNAc(b1-3)Gal(b1-4)[Fuc(a1-3)]GlcNAc
# Method in brief: as §1
# [9] = target: Gal(b1-3)GlcNAc(b1-3)Gal(b1-4)[Fuc(a1-3)]GlcNAc(b1-6)[Gal(b1-3)GlcNAc(b1-3)]Gal(b1-4)Glc
# Method in brief: as §1
# [10] = target: Gal(b1-3)GlcNAc(b1-3)GalNAc
# Method in brief: as §1
# [11] = target: Gal(b1-3)GlcNAc(b1-6)Gal(b1-4)GlcNAc
# Method in brief: as §1
# [12] = target: Gal(b1-3)GlcNAc(b1-6)GalNAc
# Method in brief: as §1
# [13] = target: Gal(b1-3)GlcNAc(b1-6)[Gal(b1-3)]GalNAc
# Method in brief: as §1
# Gal(b1-3)GlcNAc6S = target: Gal(b1-3)GlcNAc6S
# Method in brief: as §1
# [14] = target: Gal(b1-3)[Fuc(a1-4)]GlcNAc
# Method in brief: as §1
# [15] = target: Gal(b1-3)[Fuc(a1-4)]GlcNAc(b1-2)Man
# Method in brief: as §1
# [16] = target: Gal(b1-3)[Fuc(a1-4)]GlcNAc(b1-2)Man(a1-3)[Gal(b1-3)[Fuc(a1-4)]GlcNAc(b1-2)Man(a1-6)]Man(b1-4)GlcNAc(b1-4)[Fuc(a1-6)]GlcNAc
# Method in brief: as §1
# [17] = target: Gal(b1-3)[Fuc(a1-4)]GlcNAc(b1-3)Gal(b1-3)[Fuc(a1-4)]GlcNAc
# Method in brief: as §1
# [18] = target: Gal(b1-3)[Fuc(a1-4)]GlcNAc(b1-3)Gal(b1-4)GlcNAc
# Method in brief: as §1
# [19] = target: Gal(b1-3)[Fuc(a1-4)]GlcNAc(b1-3)Gal(b1-4)[Fuc(a1-3)]GlcNAc
# Method in brief: as §1
# [20] = target: Gal(b1-3)[Fuc(a1-4)]GlcNAc(b1-6)GalNAc
# Method in brief: as §1
# [21] = target: Gal(b1-3)[GlcNAc(b1-6)]GalNAc
# Method in brief: as §1
# [22] = target: Gal(b1-3)[Neu5Ac(a2-6)]GalNAc
# Method in brief: as §1
# [23] = target: Gal(b1-3)[Neu5Ac(a2-6)]GlcNAc(b1-4)Gal(b1-4)Glc
# Method in brief: as §1
# [24] = target: Gal(b1-3)[Neu5Ac(a2-6)]GlcNAc(b1-6)Gal(b1-4)Glc
# Method in brief: as §1
# [25] = target: Gal(b1-3)[Neu5Ac(b2-6)]GalNAc
# Method in brief: as §1
# Gal(b1-4)Gal = target: Gal(b1-4)Gal
# Method in brief: as §1
# [26] = target: Gal(b1-4)GalNAc(a1-3)[Fuc(a1-2)]Gal(b1-4)GlcNAc
# Method in brief: as §1
# [27] = target: Gal(b1-4)GalNAc(b1-3)[Fuc(a1-2)]Gal(b1-4)GlcNAc
# Method in brief: as §1
# Gal(b1-4)Glc = target: Gal(b1-4)Glc
# Method in brief: as §1
# Gal(b1-4)Glc6S = target: Gal(b1-4)Glc6S
# Method in brief: as §1
# Gal(b1-4)GlcNAc = target: Gal(b1-4)GlcNAc
# Method in brief: as §1
# [28] = target: Gal(b1-4)GlcNAc(a1-6)Gal(b1-4)GlcNAc
# Method in brief: as §1
# Gal(b1-4)GlcNAc(b1-2)Man = target: Gal(b1-4)GlcNAc(b1-2)Man
# Method in brief: as §1
# [29] = target: Gal(b1-4)GlcNAc(b1-2)Man(a1-3)Man(b1-4)GlcNAc(b1-4)GlcNAc
# Method in brief: as §1
# [30] = target: Gal(b1-4)GlcNAc(b1-2)Man(a1-3)[Gal(b1-4)GlcNAc(b1-2)Man(a1-6)]Man(b1-4)GlcNAc(b1-4)GlcNAc
# Method in brief: as §1
# [31] = target: Gal(b1-4)GlcNAc(b1-2)Man(a1-3)[Gal(b1-4)GlcNAc(b1-2)Man(a1-6)]Man(b1-4)GlcNAc(b1-4)[Fuc(a1-6)]GlcNAc
# Method in brief: as §1
# [32] = target: Gal(b1-4)GlcNAc(b1-2)Man(a1-3)[Gal(b1-4)GlcNAc(b1-2)Man(a1-6)][Gal(b1-4)GlcNAc(b1-4)]Man(b1-4)GlcNAc(b1-4)[Fuc(a1-6)]GlcNAc
# Method in brief: as §1
# [33] = target: Gal(b1-4)GlcNAc(b1-2)Man(a1-3)[Gal(b1-4)GlcNAc(b1-2)Man(a1-6)][GlcNAc(b1-4)]Man(b1-4)GlcNAc(b1-4)[Fuc(a1-6)]GlcNAc
# Method in brief: as §1
# [34] = target: Gal(b1-4)GlcNAc(b1-2)Man(a1-3)[Gal(b1-4)GlcNAc(b1-2)][GlcNAc(b1-4)]Man(b1-4)GlcNAc(b1-4)GlcNAc
# Method in brief: as §1
# [35] = target: Gal(b1-4)GlcNAc(b1-2)Man(a1-3)[GlcNAc(b1-2)Man(a1-6)]Man(b1-4)GlcNAc(b1-4)GlcNAc
# Method in brief: as §1
# [36] = target: Gal(b1-4)GlcNAc(b1-2)Man(a1-3)[GlcNAc(b1-4)][Gal(b1-4)GlcNAc(b1-2)Man(a1-6)]Man(b1-4)GlcNAc(b1-4)GlcNAc
# Method in brief: as §1
# [37] = target: Gal(b1-4)GlcNAc(b1-2)Man(a1-3)[Man(a1-6)]Man(b1-4)GlcNAc(b1-4)GlcNAc
# Method in brief: as §1
# [38] = target: Gal(b1-4)GlcNAc(b1-2)Man(a1-6)Man(b1-4)GlcNAc(b1-4)GlcNAc
# Method in brief: as §1
# [39] = target: Gal(b1-4)GlcNAc(b1-2)Man(a1-6)[GlcNAc(b1-2)Man(a1-3)]Man(b1-4)GlcNAc(b1-4)GlcNAc
# Method in brief: as §1
binder,measurement,setting,value
OrysaEULS2 (Oryza sativa) (protein) MVYCRANPNYAMTARNGAVVLAPANPKDEYQHWIKDMRWSTSIKDEEGYPAFALVNKATGQAIKHSLGQSHPVRLVPYNPEVMDESVLWTESRDVGNGFRCIRMVNNIYLNFDAFHGDKYHGGVRDGTDIVLWKWCEGDNQRWKIQPYYILEQKLISEEDLNSAVDHHHHHH,glycan array binding signal (z-score),[1],-0.205
same,glycan array binding signal (z-score),[2],-0.182
same,glycan array binding signal (z-score),[3],-0.222
same,glycan array binding signal (z-score),[4],0.704
same,glycan array binding signal (z-score),[5],0.13
same,glycan array binding signal (z-score),[6],-0.025
same,glycan array binding signal (z-score),[7],-0.219
same,glycan array binding signal (z-score),[8],-0.262
same,glycan array binding signal (z-score),[9],-0.207
same,glycan array binding signal (z-score),[10],-0.179
same,glycan array binding signal (z-score),[11],-0.209
same,glycan array binding signal (z-score),[12],-0.218
same,glycan array binding signal (z-score),[13],-0.228
same,glycan array binding signal (z-score),Gal(b1-3)GlcNAc6S,-0.185
same,glycan array binding signal (z-score),[14],-0.191
same,glycan array binding signal (z-score),[15],-0.186
same,glycan array binding signal (z-score),[16],-0.105
same,glycan array binding signal (z-score),[17],-0.217
same,glycan array binding signal (z-score),[18],-0.188
same,glycan array binding signal (z-score),[19],-0.222
same,glycan array binding signal (z-score),[20],-0.086
same,glycan array binding signal (z-score),[21],-0.22
same,glycan array binding signal (z-score),[22],-0.205
same,glycan array binding signal (z-score),[23],-0.274
same,glycan array binding signal (z-score),[24],-0.179
same,glycan array binding signal (z-score),[25],-0.216
same,glycan array binding signal (z-score),Gal(b1-4)Gal,-0.177
same,glycan array binding signal (z-score),[26],-0.199
same,glycan array binding signal (z-score),[27],-0.187
same,glycan array binding signal (z-score),Gal(b1-4)Glc,-0.197
same,glycan array binding signal (z-score),Gal(b1-4)Glc6S,-0.193
same,glycan array binding signal (z-score),Gal(b1-4)GlcNAc,-0.229
same,glycan array binding signal (z-score),[28],-0.203
same,glycan array binding signal (z-score),Gal(b1-4)GlcNAc(b1-2)Man,-0.177
same,glycan array binding signal (z-score),[29],1.23
same,glycan array binding signal (z-score),[30],1.17
same,glycan array binding signal (z-score),[31],0.251
same,glycan array binding signal (z-score),[32],-0.254
same,glycan array binding signal (z-score),[33],-0.228
same,glycan array binding signal (z-score),[34],-0.182
same,glycan array binding signal (z-score),[35],1.37
same,glycan array binding signal (z-score),[36],-0.172
same,glycan array binding signal (z-score),[37],1.06
same,glycan array binding signal (z-score),[38],-0.181
same,glycan array binding signal (z-score),[39],0.971
